{
  "source": "ChEMBL document CHEMBL1201862",
  "about": "“PubChem BioAssay data set” (2004)",
  "note": "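Briefly, cells in 96-well plates were exposed to five compound concentrations for 48 h, and endpoints were estimated by linear interpolation. GI50 is the concentration that inhibits growth by half.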 Calls of active or inactive are those of the source. Rule as the data show it: active = GI50 up to about 1.1 µM and inactive = higher.",
  "data": [
    {"system": "NCI-H322M", "experiment": "NCI-60 cell line screen, 48 h", "values": [
      {"smiles": "COC(=O)C1(Cc2ccc3c(c2)CCC3)Cc2ccc3c(c2C1=O)CCC3", "note": "(configuration not stated)", "GI50": "inactive: 36.1 µM"},
      {"smiles": "Nc1ncnc2nn(C3OC(CO)C(O)C3O)nc12", "note": "(configuration not stated)", "GI50": "inactive: 20.4 µM"},
      {"smiles": "CN1C2C=CC(=O)C1C(C#N)C2", "note": "(configuration not stated)", "GI50": "inactive: 68.2 µM"},
      {"smiles": "CCOC(=O)c1c[nH]cc1-c1cn(S(=O)(=O)c2ccccc2)cc1C", "GI50": "inactive: 29.4 µM"},
      {"smiles": "COc1ccccc1OCC(COC(=O)Nc1ccc(C)cc1)OC(=O)Nc1ccc(C)cc1", "note": "(configuration not stated)", "GI50": "inactive: 46.2 µM"},
      {"smiles": "CN(C(=O)c1ccccc1)C1CCCC(=O)CC1", "note": "(configuration not stated)", "GI50": "inactive: > 100 µM"},
      {"smiles": "O=c1oc2ccccc2cc1-c1nnc(-c2ccccc2)s1", "GI50": "inactive: > 79.1 µM"},
      {"smiles": "C=CCC1=C(C)C[C@@H]2CCC(=O)C=C12", "GI50": "inactive: > 100 µM"},
      {"smiles": "O=c1[nH]c(=O)n([C@H]2C[C@@H](CO)[C@@H](O)C2)cc1I", "GI50": "inactive: > 100 µM"},
      {"smiles": "Cc1cccc(NC(=S)Nc2ccc(Cl)cc2)n1", "GI50": "inactive: > 100 µM"},
      {"smiles": "COC(=O)c1c(C)[nH]c2c1cc(O)c1nc(C)c(C)nc12", "GI50": "inactive: 31.2 µM"},
      {"smiles": "O=C(NCCCN(CCCCN(CCCNC(=O)C(F)(F)F)Cc1ccccc1)Cc1ccccc1)C(F)(F)F", "GI50": "inactive: 14.1 µM"},
      {"smiles": "Cc1c(NC(=O)CSC(=S)N(C)C)c(=O)n(-c2ccccc2)n1C", "GI50": "inactive: > 100 µM"},
      {"smiles": "C[C@@H]1CC(=O)C[C@@H]2CC[C@H]3[C@@H]4CC[C@H](OC(=O)c5cccc6cc7ccccc7nc56)[C@H]4CC[C@@H]3[C@H]21", "GI50": "inactive: 26.3 µM"},
      {"smiles": "O=S(=O)(Nc1ccccc1S(=O)(=O)c1ccccc1)c1ccccc1", "GI50": "inactive: > 100 µM"},
      {"smiles": "COc1ccc2c(c1)-c1c(c3cc(OC)ccc3n1CCN(C)C)CC2", "GI50": "inactive: 13.4 µM"},
      {"smiles": "O=c1c2ccccc2[nH]n1Cc1ccccc1", "GI50": "inactive: > 100 µM"},
      {"smiles": "O=C(Cn1c(=O)oc2ccc(C(=O)c3ccc(F)cc3)cc21)c1ccc([N+](=O)[O-])cc1", "GI50": "inactive: 37.1 µM"},
      {"smiles": "O=C1c2ccccc2C2(c3ccc(Cl)cc3)NCc3ccccc3CN12", "note": "(configuration not stated)", "GI50": "inactive: 15.8 µM"},
      {"smiles": "COc1ccc(C[N+]23C(CC[C@H]2c2ccccc2)CC[C@H]3c2ccccc2)cc1", "note": "(some centres not stated)", "GI50": "inactive: 33.5 µM"},
      {"smiles": "CC(=O)Oc1c(-c2ccccc2)oc2ccccc12", "GI50": "inactive: 3.76 µM"},
      {"smiles": "C[N+](C)(C)CCCSc1nc2ccccc2[nH]1", "GI50": "inactive: > 100 µM"},
      {"smiles": "CCOC(=O)c1ccc2c(c1)Cc1cc([N+](=O)[O-])ccc1-2", "GI50": "inactive: 92 µM"},
      {"smiles": "Cc1nc2c(cc1C(=O)NN)c(=O)n(C)c(=O)n2C", "GI50": "inactive: > 100 µM"},
      {"smiles": "S=C(/N=C1/NCC(CN2CCN(c3ccccc3)CC2)O1)Nc1ccccc1", "note": "(configuration not stated)", "GI50": "inactive: > 100 µM"},
      {"smiles": "CC1(C)C(=O)C(O)=CC2C1=CCC1C2(C)C(=O)CC2(C)C(C(C)(O)C(=O)CC(O)C(C)(C)O)C(O)CC12C", "note": "(configuration not stated)", "GI50": "inactive: 24.4 µM"},
      {"smiles": "COC12C(COC(=O)NCCO)C3=C(C(=O)C(C)=C(N)C3=O)N1CC1NC12", "note": "(configuration not stated)", "GI50": "inactive: 42 µM"},
      {"smiles": "CCN(CC)CSc1nc2ccccc2[nH]1", "GI50": "inactive: > 100 µM"},
      {"smiles": "Nc1nc2c(ncn2Cc2ccccc2CO)c(=O)[nH]1", "GI50": "inactive: > 100 µM"},
      {"smiles": "COc1cc2ncnc(NS(=O)(=O)c3cc4ccccc4s3)c2cc1OC", "GI50": "inactive: > 100 µM"},
      {"smiles": "CCOC(=O)/C(=C/c1cccc(Cl)c1)N(CC)CC", "GI50": "inactive: 58.2 µM"},
      {"smiles": "CCOC(=O)NC(=O)c1cn(CCCOC(=O)CCCCCCCCC(=O)OCCCn2cc(C(=O)NC(=O)OCC)c(=O)[nH]c2=O)c(=O)[nH]c1=O", "GI50": "inactive: 30.3 µM"},
      {"smiles": "CC(=O)Nc1ccc(C(=O)N[C@@H]2C(=O)N3[C@@H]2SC(C)(C)[C@@H]3C(=O)O)cn1", "GI50": "inactive: > 100 µM"},
      {"smiles": "COC(=O)C1(c2ccc(OC)cc2)NC(c2ccccc2)C2C(=O)N(c3ccc(OC)cc3)C(=O)C21", "note": "(configuration not stated)", "GI50": "inactive: > 100 µM"},
      {"smiles": "O=[N+]([O-])c1ccc(-c2cn(-c3ccc(Cl)cc3)cn2)cc1", "GI50": "inactive: 73.8 µM"},
      {"smiles": "COC(=O)c1cccn1C(=O)n1cccc1", "GI50": "inactive: > 100 µM"},
      {"smiles": "Nc1nc(N)c2ncn(-c3ccccc3)c2n1", "GI50": "inactive: > 100 µM"},
      {"smiles": "O=C1C(c2ccccc2)=C(c2ccccc2)C(c2ccc(Sc3ccc(C4=C(c5ccccc5)C(=O)C(c5ccccc5)=C4c4ccccc4)cc3)cc2)=C1c1ccccc1", "GI50": "inactive: > 100 µM"},
      {"smiles": "Cc1ccc2c(=O)[nH]sc2c1", "GI50": "inactive: 45.6 µM"},
      {"smiles": "Cc1cccc(-c2nc(-c3cnccn3)n(Cc3ccccc3)n2)c1", "GI50": "inactive: > 100 µM"},
      {"smiles": "O=c1[nH][nH]c(=O)n1/N=C/c1ccccc1", "GI50": "inactive: > 100 µM"},
      {"smiles": "CCOC(=O)Cc1cnc(NC(NC(=O)CC)(C(F)(F)F)C(F)(F)F)s1", "GI50": "inactive: > 100 µM"},
      {"smiles": "COC1=NC(NC2OCC(O)C(O)C2O)=C(NC(C)=O)CN1C", "note": "(configuration not stated)", "GI50": "inactive: > 100 µM"},
      {"smiles": "CN(C)C1C(CO)OC(n2cnc3c(N)ncnc32)C1O", "note": "(configuration not stated)", "GI50": "inactive: > 100 µM"},
      {"smiles": "CC1(Cl)CC(C)(/C=C/Cl)C(Cl)CC1Cl", "note": "(configuration not stated)", "GI50": "inactive: 19.9 µM"},
      {"smiles": "CN(C)C(=O)Nc1c([N+](=O)[O-])cc(C(F)(F)F)cc1[N+](=O)[O-]", "GI50": "inactive: 96.8 µM"},
      {"smiles": "C=C1CC(C#N)(C#N)[C@@H]2CC3CCCC3[C@H]12.C=C1CC(C#N)(C#N)[C@H]2C3CCCC3C[C@@H]12", "note": "(some centres not stated)", "GI50": "inactive: 42.3 µM"}
    ]}
  ]
}
